Experimental data as given in PubChem BioAssay (NCI).
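Dose response: 5 concentrations. Exposure: 48 h. Format: 96-well plates. Endpoint: linear interpolation; highest concentration if not reached. GI50 marks 50% less growth. At the TGI there is no net growth.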

Tested on: NCI-H322M lung
Test: DTP human tumour cell line panel, 48 h

Work on `CS(=O)(=O)Nc1cc(-c2ccc3ncc(C#N)c(NCc4ccccc4O)c3c2)cnc1Cl` yielded a GI50 of 1.03 µM and a TGI of 8.47 µM.
